Reference: PubChem BioAssay AID588855 (National Center for Advancing Translational Sciences (NCATS), 2011)
The campaign covered roughly 410,000 compounds. About 5,000 (1.2%) were called active. This list was built around the results that the source calls inconclusive (neither active nor inactive); the mix of calls is not that of the screen. The call rests on the fitted dose curve; in most records, active means well fitted inhibition curve with a large enough effect; inconclusive means small, poorly fitted or top-dose-only effect; inactive means no such curve, though single readings can be large or run the other way. Potencies of inconclusive entries are doubtful fits and often do not repeat.

Experiment: qHTS for Inhibitors of TGF-b; further: nearly all actives have a fitted effect of over 65% in size
Conditions: HepG2 CAGA-GFP TGF-b/SMAD3 reporter, GFP fluorescence, 18 h, TGF-beta stimulated, 500 pg/mL final; series mostly up to 46.1 µM
Summary of the method: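 Inhibition of TGF-beta-driven CAGA-GFP reporter expression in HEPG2 cells is measured by cellular GFP fluorescence after 18 h stimulation with 500 pg/mL recombinant TGF-beta in 1% FBS medium at 37 degrees C.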
Potency means the concentration at half of the fitted maximal effect; tags describe the fitted curve by direction and shape.

Row | Structure (SMILES) | Potency
1 | C[C@H](NC(=O)N1CCn2c1nc1ccccc12)C(=O)NCc1ccc2c(c1)OCO2 | inactive
2 | Cc1nnc(C)c2c(C)n(C(c3ccccc3)c3ccccc3)c(C)c12 | inconclusive: 20 µM [inhibitor, single point]
3 | Cc1cccnc1C(NC(=O)C1CCN(CCCOc2ccc(F)cc2)CC1)c1ccccc1 (configuration not stated) | inconclusive: 8.91 µM [inhibitor, partial curve, poor fit]
4 | O=C(NCc1cccs1)c1ccc(CSc2nc3ccncc3n2Cc2cccc(F)c2)cc1 | inconclusive: 6.31 µM [inhibitor, partial curve]
5 | CC(C)N1CCN(c2ccncc2S(=O)(=O)N2CCN(C)CC2)CC1 | inactive
6 | COc1ccc([C@H]2CC(=O)C=C(c3cccc(C(C)C)c3)C2)cc1 | inconclusive: 20 µM [inhibitor, single point]
7 | Cc1c(Cl)cccc1NC(=S)NCCc1ccc(C(F)(F)F)cc1 | inconclusive: 35.5 µM [inhibitor, single point]
8 | CC1Cc2cc(S(=O)(=O)NCc3ccc(F)cc3)ccc2N1C(=O)C1CCC1 (configuration not stated) | inconclusive: 0.708 µM [inhibitor, full curve, poor fit]
9 | CCSc1nnc(NC(=O)CSc2nccn2-c2cccc(C)c2)s1 | inactive
10 | CCCCc1cc(=O)oc2cc(OCC(=O)N3CCC(C(=O)O)(c4ccccc4)CC3)ccc12 | inconclusive: 7.08 µM [inhibitor, partial curve, poor fit]
11 | COc1ccc(Cn2c(SCC#N)nc3ccc(N4CCOCC4)cc3c2=O)cc1 | inactive
12 | COc1cc(NC(=O)c2cc(OC)c(OC)c(OC)c2)ccc1NC(=O)c1cccs1 | inactive
13 | CCOc1ccccc1CN1CCN(CC2=Cc3cc(OC)ccc3OC2)CC1CCO (configuration not stated) | inconclusive: 35.5 µM [inhibitor, single point]
14 | CCN(Cc1ccccc1)C(=O)Nc1ccc2c(c1)N(C)C(=O)c1ccccc1S2 | inactive
15 | COc1ccc(-n2c(-c3ccc(Br)cc3)n[nH]c2=S)cc1 | inactive
16 | O=C1c2ccccc2C(=O)c2cc(N3CCCCC3)ccc21 | inactive
17 | Cc1ccc(N2C(=O)N(CC(=O)Nc3cc(C)cc(C)c3)C(=O)C2C)cc1 (configuration not stated) | inconclusive: 35.5 µM [inhibitor, single point]
18 | Cc1ccc(C(=O)Nc2ccc3c(c2)N(C)C(=O)c2ccccc2S3)cc1F | inconclusive: 7.08 µM [inhibitor, partial curve, poor fit]
19 | CC1(Cc2ccc(OC(F)(F)F)cc2)C(=O)Nc2ccc(OC(F)(F)F)cc21 (configuration not stated) | inconclusive: 22.4 µM [inhibitor, single point]
20 | OC1CCCN(c2c3c(nc4cc(-c5cccc(F)c5)nn24)CCCC3)C1 (configuration not stated) | inactive
21 | O=C(CCS(=O)(=O)c1ccc(Br)cc1)NCc1ccc(F)cc1 | inactive

Row | Structure (SMILES) | Potency
22 | Cc1ccc(N2C(=O)CSC2=S)cc1C | inconclusive: 12.6 µM [inhibitor, partial curve, poor fit]
23 | O=c1cnn(Cc2ccc(Cl)c(Cl)c2)c2ccccc12 | inconclusive: 10 µM [inhibitor, partial curve]
24 | CCOc1ccc(CNC(=O)Cn2nc(C)c3sc4ccccc4c3c2=O)cc1 | inconclusive: 8.91 µM [inhibitor, partial curve, poor fit]
25 | COc1cccc(/C=C/C(=O)OCC(=O)c2ccc(C)c(C)c2)c1OC | inactive
26 | CC(C)(C)C1CCc2c(sc3c2C(=O)NC(c2ccco2)N3)C1 (configuration not stated) | inconclusive: 5.62 µM [inhibitor, full curve]
27 | O=C(COC(=O)CNC(=O)c1ccc(F)cc1)Nc1cccc(S(=O)(=O)N2CCCC2)c1 | inconclusive: 3.16 µM [inhibitor, full curve]
28 | COc1cccc(-c2cc(C(=O)NCCc3ccc(C)cc3)[nH]n2)c1 | inconclusive: 15.8 µM [inhibitor, single point]
29 | O=C1NC[C@H](c2ccccc2)OC(=O)[C@H](Cc2ccc(F)cc2)C/C=C\C[C@H]1CC(=O)N(CCO)Cc1ccccc1 | inconclusive: 35.5 µM [inhibitor, single point]
30 | Cc1onc(-c2c(Cl)cccc2Cl)c1C(=O)Nc1nc(C(C)(C)C)cs1 | inconclusive: 35.5 µM [inhibitor, single point]
31 | O=C(NCCCN1CCCC1)c1ccc2c(c1)N(Cc1ccccc1)CCS2 | inconclusive: 35.5 µM [inhibitor, single point]
32 | O=C(Cn1cc(SCc2cccc(C(F)(F)F)c2)c2ccccc21)N1CCCCCC1 | inconclusive: 1.26 µM [inhibitor, full curve, poor fit]
33 | Cc1cc(NC(=O)c2nn3cccnc3c2Cl)no1 | inconclusive: 35.5 µM [inhibitor, single point]
34 | Cc1ccc(NC(=O)COC(=O)/C=C/c2cccs2)c(C)c1 | inactive
35 | Cc1ccc(NC(=O)COc2ccc(CCO)cc2-n2nc3ccccc3n2)cc1C | inconclusive: 35.5 µM [inhibitor, single point]
36 | COc1ccccc1CNC(=O)Nc1ccc2c(c1)N(C)C(=O)c1ccccc1S2 | inconclusive: 8.91 µM [inhibitor, partial curve, poor fit]
37 | CCn1cc(Br)c(C(=O)NCc2ccco2)n1 | inconclusive: 1.12 µM [inhibitor, partial curve, poor fit]
38 | COc1ccc(Br)cc1CNC(=O)CCC(=O)N1CCSc2ccccc21 | inconclusive: 11.2 µM [inhibitor, partial curve]
39 | COc1ccc(C(=O)Nc2ccc(S(=O)(=O)N3CCOCC3)cc2)cc1 | inconclusive: 1.41 µM [inhibitor, full curve, poor fit]
40 | Cc1cccc2c(N=O)c(O)[nH]c12 | inconclusive: 3.55 µM [inhibitor, single point]
41 | Cc1cc(C)c(S(=O)(=O)NC2CCN(Cc3ccccc3)CC2)c(C)c1 | inconclusive: 31.6 µM [inhibitor, single point]
42 | COc1cccc(NC(=O)c2oc3ccccc3c2NC(=O)COc2ccccc2C)c1 | inconclusive: 6.31 µM [inhibitor, partial curve, poor fit]
